Measured values from the supplement of paper PMC3334620.
In all, about 33,000 sequences were measured (“E-score (-0.5 to 0.5)”: median about -0.035, highest 2% from about 0.35 on). This is one part of the list.

Target: T1, Pdr3 (UniProt P33200)
T1 sequence: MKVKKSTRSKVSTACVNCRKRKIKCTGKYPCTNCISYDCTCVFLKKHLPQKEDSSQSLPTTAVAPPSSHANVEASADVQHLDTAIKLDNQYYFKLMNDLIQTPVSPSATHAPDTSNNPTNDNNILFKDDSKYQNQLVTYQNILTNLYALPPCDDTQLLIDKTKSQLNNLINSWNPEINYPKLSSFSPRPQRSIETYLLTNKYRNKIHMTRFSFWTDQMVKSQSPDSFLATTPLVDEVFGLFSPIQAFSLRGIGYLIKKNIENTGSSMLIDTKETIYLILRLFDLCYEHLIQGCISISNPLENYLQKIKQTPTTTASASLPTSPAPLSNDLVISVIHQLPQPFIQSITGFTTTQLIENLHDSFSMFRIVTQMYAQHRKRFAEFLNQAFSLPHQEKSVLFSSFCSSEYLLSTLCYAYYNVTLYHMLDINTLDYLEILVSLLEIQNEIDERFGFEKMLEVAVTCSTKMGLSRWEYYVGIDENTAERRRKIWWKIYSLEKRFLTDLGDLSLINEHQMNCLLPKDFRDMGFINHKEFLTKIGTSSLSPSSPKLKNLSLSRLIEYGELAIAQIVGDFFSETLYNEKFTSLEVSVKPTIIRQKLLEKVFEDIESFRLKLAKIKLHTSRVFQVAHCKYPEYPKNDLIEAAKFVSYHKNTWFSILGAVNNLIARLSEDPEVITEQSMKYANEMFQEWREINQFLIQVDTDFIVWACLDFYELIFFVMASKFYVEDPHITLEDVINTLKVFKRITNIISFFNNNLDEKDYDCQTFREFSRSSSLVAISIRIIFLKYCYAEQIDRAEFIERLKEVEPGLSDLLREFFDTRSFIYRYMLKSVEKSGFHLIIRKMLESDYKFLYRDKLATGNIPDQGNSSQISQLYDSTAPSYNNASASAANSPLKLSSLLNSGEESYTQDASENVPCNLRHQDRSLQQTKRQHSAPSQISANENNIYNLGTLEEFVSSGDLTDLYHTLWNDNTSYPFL
Test: PBM E-score (8-mer binding enrichment) (E-score (-0.5 to 0.5)); higher = stronger / more preferred TF binding; most listed sequences are background and not binding sites
Settings: protein concentration: 200 nM; construct: GST-full length
Summary of the method: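 Universal all-10-mer Agilent arrays, fresh or stripped once, were converted to double-stranded form by primer extension. GST-tagged yeast transcription factors from PURExpress in vitro transcription/translation, full-length or DNA-binding domain only, were applied at about 100-200 nM and detected with fluorescent anti-GST. After masliner normalisation, the Universal PBM Analysis Suite scored each ungapped eight-base word together with its reverse complement by E-score.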

Q: Which “PBM E-score” value does the source give for ACCCGCGT here?
A: 0.0485

Q: For CATATACC, which “PBM E-score” value is on record?
A: 0.0211

Q: With GTTTCGCA as the sequence, how does the “PBM E-score” value read?
A: -0.151

Q: With GGGGCAGA as the sequence, how does the “PBM E-score” value read?
A: -0.0181

Q: Which “PBM E-score” value does the source give for ATCAGAGA here?
A: -0.108

Q: CATTCTAA was tested. Which “PBM E-score” value did it give?
A: -0.132

Q: Which “PBM E-score” value does the source give for AATCACTC here?
A: -0.313

Q: ACGCACCA was tested. Which “PBM E-score” value did it give?
A: 0.00472

Q: How did the “PBM E-score” value turn out when CTGTTTGC was run?
A: -0.0556

Q: Which “PBM E-score” value does the source give for CTACATGA here?
A: -0.0682

Q: CGATTGAA was tested. Which “PBM E-score” value did it give?
A: -0.055

Q: How did the “PBM E-score” value turn out when AGGCCACG was run?
A: 0.0493

Q: TAGCGCGA was tested. Which “PBM E-score” value did it give?
A: 0.0544

Q: Which “PBM E-score” value does the source give for CGATAGTA here?
A: -0.0357

Q: For ACGGGAAC, which “PBM E-score” value is on record?
A: 0.33

Q: AGAAGGAA was tested. Which “PBM E-score” value did it give?
A: 0.0224

Q: AGCGTTAA was tested. Which “PBM E-score” value did it give?
A: -0.217

Q: For ACGTGTTA, which “PBM E-score” value is on record?
A: 0.0457

Q: How did the “PBM E-score” value turn out when AGATAGCA was run?
A: -0.0269

Q: For CTAGGCGA, which “PBM E-score” value is on record?
A: -0.142

Q: GACTTTAC was tested. Which “PBM E-score” value did it give?
A: 0.0726

Q: Which “PBM E-score” value does the source give for ATTGTTCA here?
A: -0.0393

Q: How did the “PBM E-score” value turn out when CCCCACTA was run?
A: -0.00417

Q: CAGCATAC was tested. Which “PBM E-score” value did it give?
A: -0.172

Q: GAGGTGCC was tested. Which “PBM E-score” value did it give?
A: 0.00556

Q: With GGGAATGA as the sequence, how does the “PBM E-score” value read?
A: 0.219

Q: Which “PBM E-score” value does the source give for GCCACTTA here?
A: -0.0589

Q: Which “PBM E-score” value does the source give for TACGACTA here?
A: -0.179

Q: With ATCTATTG as the sequence, how does the “PBM E-score” value read?
A: -0.154

Q: AGACGCGG was tested. Which “PBM E-score” value did it give?
A: 0.109

Q: Which “PBM E-score” value does the source give for GAGTTACC here?
A: 0.0158

Q: With ACGGTTCA as the sequence, how does the “PBM E-score” value read?
A: -0.137

Q: For ACGGGCTC, which “PBM E-score” value is on record?
A: -0.0651

Q: Which “PBM E-score” value does the source give for AGGCACAA here?
A: -0.13

Q: For AGAGATCT, which “PBM E-score” value is on record?
A: -0.248

Q: With GAACCGTC as the sequence, how does the “PBM E-score” value read?
A: 0.0271

Q: How did the “PBM E-score” value turn out when CAGAGCTC was run?
A: -0.0945

Q: With GCGCGACA as the sequence, how does the “PBM E-score” value read?
A: 0.255

Q: With GCACCAAC as the sequence, how does the “PBM E-score” value read?
A: 0.00954

Q: With TACGAACA as the sequence, how does the “PBM E-score” value read?
A: -0.148

Q: Which “PBM E-score” value does the source give for AAGCCTCT here?
A: -0.332

Q: For AAGGTGAG, which “PBM E-score” value is on record?
A: -0.0473

Q: With AAGCTGCA as the sequence, how does the “PBM E-score” value read?
A: -0.163

Q: Which “PBM E-score” value does the source give for CAAATTGA here?
A: -0.0834

Q: CCCGCAAC was tested. Which “PBM E-score” value did it give?
A: 0.299

Q: TAGATGAA was tested. Which “PBM E-score” value did it give?
A: -0.109

Q: Which “PBM E-score” value does the source give for ACGCTAGT here?
A: -0.0553

Q: With CGGTGGCC as the sequence, how does the “PBM E-score” value read?
A: 0.167

Q: AAAAACTG was tested. Which “PBM E-score” value did it give?
A: -0.221

Q: How did the “PBM E-score” value turn out when CGGCAGGA was run?
A: 0.164

Q: How did the “PBM E-score” value turn out when GAGGCTAA was run?
A: -0.0878

Q: With CAACCTCA as the sequence, how does the “PBM E-score” value read?
A: -0.23

Q: For CGGAAGAA, which “PBM E-score” value is on record?
A: 0.378

Q: Which “PBM E-score” value does the source give for CTACTGCC here?
A: -0.0603

Q: GCCCTTGA was tested. Which “PBM E-score” value did it give?
A: -0.14

Q: With ACATCTGC as the sequence, how does the “PBM E-score” value read?
A: -0.148

Q: With GGTGTCGA as the sequence, how does the “PBM E-score” value read?
A: -0.101

Q: Which “PBM E-score” value does the source give for CTGAGGAC here?
A: -0.0292

Q: How did the “PBM E-score” value turn out when ATCGAACG was run?
A: -0.0659

Q: Which “PBM E-score” value does the source give for AAATATGA here?
A: -0.0267

Q: For ATGACGCC, which “PBM E-score” value is on record?
A: -0.138

Q: How did the “PBM E-score” value turn out when ACCTACCT was run?
A: -0.0124

Q: With CACGGTTC as the sequence, how does the “PBM E-score” value read?
A: -0.127

Q: For CCGAATTA, which “PBM E-score” value is on record?
A: 0.168

Q: With AAGCACCC as the sequence, how does the “PBM E-score” value read?
A: -0.0948

Q: With AGAACAGG as the sequence, how does the “PBM E-score” value read?
A: -0.128

Q: For CATAATCC, which “PBM E-score” value is on record?
A: -0.106

Q: Which “PBM E-score” value does the source give for TTGTTAAA here?
A: -0.0776

Q: Which “PBM E-score” value does the source give for GCGCAGTA here?
A: 0.054

Q: GATCGTCC was tested. Which “PBM E-score” value did it give?
A: 0.177

Q: For ACTACGTC, which “PBM E-score” value is on record?
A: -0.156

Q: How did the “PBM E-score” value turn out when GAATGGGA was run?
A: -0.0226

Q: Which “PBM E-score” value does the source give for ATATCTTC here?
A: 0.196

Q: CTTGCCCC was tested. Which “PBM E-score” value did it give?
A: -0.0846

Q: AAGGAAAA was tested. Which “PBM E-score” value did it give?
A: 0.0469

Q: CCAGTATC was tested. Which “PBM E-score” value did it give?
A: -0.0171

Q: With AAGGCGGC as the sequence, how does the “PBM E-score” value read?
A: -0.112

Q: For AGGGCAAT, which “PBM E-score” value is on record?
A: 0.173

Q: For ACAACGCG, which “PBM E-score” value is on record?
A: 0.0944

Q: With GAGTGTAA as the sequence, how does the “PBM E-score” value read?
A: -0.237

Q: How did the “PBM E-score” value turn out when AGGGAACC was run?
A: -0.00025

Q: Which “PBM E-score” value does the source give for CGATCCTA here?
A: -0.0469

Q: How did the “PBM E-score” value turn out when GAGCTCGC was run?
A: 0.218

Q: How did the “PBM E-score” value turn out when ACCAGATC was run?
A: 0.0295

Q: CATGACCA was tested. Which “PBM E-score” value did it give?
A: -0.0692

Q: For ATAATCAT, which “PBM E-score” value is on record?
A: 0.0794
